Several values for one entry are separate records, joined by “and”; a condition that tells them apart may be missing. Identical values can stand only once. Out of some 110,000 compounds screened, about 230 (0.21%) showed an effect of 50% or more. The list shows a part of the results.
These compounds were tested against DPAP1 (Plasmodium falciparum, UniProt Q8IIJ9) (assay: primary screen, percent inhibition; read by cleavage of a fluorogenic dipeptide substrate; higher = more effect of the substance).
Design: species or system P. falciparum D10 trophozoite lysates; single well
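Further: 30 min substrate incubation versus DMSO and 10 µM JCP410 controls.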

Chain of DPAP1 (Q8IIJ9 whole entry, looked up): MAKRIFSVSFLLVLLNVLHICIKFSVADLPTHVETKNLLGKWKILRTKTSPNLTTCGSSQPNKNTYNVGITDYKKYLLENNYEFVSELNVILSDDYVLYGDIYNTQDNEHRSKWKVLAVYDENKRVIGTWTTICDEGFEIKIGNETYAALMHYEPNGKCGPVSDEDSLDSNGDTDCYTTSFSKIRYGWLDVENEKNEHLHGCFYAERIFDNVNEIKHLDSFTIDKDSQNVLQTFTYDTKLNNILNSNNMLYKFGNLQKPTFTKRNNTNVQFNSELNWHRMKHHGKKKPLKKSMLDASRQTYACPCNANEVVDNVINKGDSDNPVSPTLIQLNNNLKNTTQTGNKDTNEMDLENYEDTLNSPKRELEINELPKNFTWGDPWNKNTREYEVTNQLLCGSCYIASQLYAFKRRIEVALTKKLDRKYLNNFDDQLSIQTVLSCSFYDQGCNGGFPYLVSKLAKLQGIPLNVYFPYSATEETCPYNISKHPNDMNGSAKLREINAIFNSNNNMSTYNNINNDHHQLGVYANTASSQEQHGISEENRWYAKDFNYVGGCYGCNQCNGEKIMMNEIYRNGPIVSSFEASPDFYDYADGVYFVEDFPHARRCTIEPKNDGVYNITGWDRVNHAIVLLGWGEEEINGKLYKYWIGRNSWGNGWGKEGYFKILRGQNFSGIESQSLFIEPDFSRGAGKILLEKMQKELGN

Compared with `CCCN(CC(=O)Nc1c(C)cccc1CC)C(=O)SCC`, `COc1ccc(Cl)cc1NC(=O)CN(CCc1ccccc1)S(C)(=O)=O` is higher in “% Inhibition @ 10 uM” value: 0.214% for the first, 1.17% for the second.

Going from `COc1cc(OC)c(OC)cc1CN1CCN(C2CCC(C)CC2)CC1` (stereo not shown) to `COc1cc(C(=O)Nc2ccc(S(=O)(=O)N3CCC(C)CC3)cc2)cc(OC)c1OC`, the “% Inhibition @ 10 uM” value rises from -4.69% to -2.19%.

First: CCCOc1ccc(C(=O)NCCCN(C)C)cc1
Second: CCCCCCNC(=O)c1cc(OC)cc(OC)c1
The “% Inhibition @ 10 uM” value of the first is higher: 5% for the first, 2.23% for the second.

Going from `CCc1ccc(-c2nc(CSCC(=O)NCCCSCCC(C)C)c(C)o2)cc1` to `Cc1oc(-c2cccc(Cl)c2)nc1CS(=O)(=O)CC(=O)NC(C)c1ccccc1` (stereo not shown), the “% Inhibition @ 10 uM” value rises from -6.4% to 9.33%.

Compared with `COc1ccc(NC(=O)c2ccc(C(F)(F)F)cc2)cc1`, `COc1ccc(-c2ccc3c(N)c(C(=O)Nc4ccc(C(C)=O)cc4)sc3n2)cc1` is higher in “% Inhibition @ 10 uM” value: -5.3% for the first, 1.27% for the second.

First: CCc1ccc(CN2CCN(Cc3ccccc3)CC2)cc1
Second: c1ccc(CN2CCN(Cc3cccnc3)CC2)cc1
The “% Inhibition @ 10 uM” value of the first is higher: -0.0404% for the first, -6.82% for the second.

First: COC(=O)C1=NN(c2nc(C)c(OC)[nH]2)C(=O)C1
Second: COc1ccccc1C1CC(=O)N=C(NC(C)=O)N1 (stereo not shown)
The “% Inhibition @ 10 uM” value of the first is higher: -0.0108% for the first, -0.212% for the second.

First: Cc1cc(C)c(OCC(=O)N(Cc2ccccc2F)C2CCS(=O)(=O)C2)c(C)c1 (stereo not shown)
Second: COc1ccc2c(c1)OCC/C2=N\OC(=O)c1ccccc1F
The “% Inhibition @ 10 uM” value of the first is lower: 0.366% for the first, 3.16% for the second.

First: CC(NC(=O)CCN1C(=O)c2ccccc2C1=O)c1ccc2c(c1)CCCC2 (stereo not shown)
Second: N#CCc1ccc(NC(=O)COc2ccc3c(c2)CCC3)cc1
The “% Inhibition @ 10 uM” value of the first is lower: -2.29% for the first, 5.39% for the second.

First: N#Cc1ccccc1NC(=O)c1cccc(C(=O)Nc2ccccc2C#N)c1
Second: COc1ccccc1NC(=O)Nc1ccc2ccccc2c1
The “% Inhibition @ 10 uM” value of the first is higher: 3.32% for the first, -2.51% for the second.

First: COCCNC(=O)C1=C(C)C(=O)OC12CCC(C)CC2 (stereo not shown)
Second: COCc1cc(CN2CCC(C)CC2)c(O)c2ncccc12
The “% Inhibition @ 10 uM” value of the first is lower: -5.58% for the first, -2.28% for the second.

Going from `CCN1CCN(c2cc(SC(C)C)nc(-c3ccc(OC)cc3)n2)CC1` to `COc1ccc(N2CCN(Cc3ccc(C(C)C)cc3)CC2)cc1`, the “% Inhibition @ 10 uM” value falls from 2.08% to 0.605%.

First: CCOC(=O)C1=CN(C)C=C(C(=O)OCC)C1c1cc(OC)c(OC)cc1OC
Second: CCCO/C(O)=C1\C(C)=NC2=C(C(=O)CC(C)(C)C2)C1c1ccc(OC)c(OC)c1 (stereo not shown)
The “% Inhibition @ 10 uM” value of the first is higher: 0.219% for the first, -1.03% for the second.

First: COc1ccc(S(N)(=O)=O)cc1C(=O)NCCCN1CCN(c2cccc(Cl)c2)CC1
Second: COc1cc(S(=O)(=O)N2CCN(c3ccc(F)cc3)CC2)c(C)cc1C
The “% Inhibition @ 10 uM” value of the first is lower: -16.5% for the first, -5.4% for the second.

First: N#CC1=C(N)Oc2ccc3ccc(O)cc3c2C1c1ccc(Cl)cc1 (stereo not shown)
Second: COc1cc(C2C(C#N)=C(N)OC3=C2C(=O)CCC3)ccc1OCc1cccc(C(F)(F)F)c1 (stereo not shown)
The “% Inhibition @ 10 uM” value of the first is higher: 1.35% for the first, -2.78% for the second.

Compared with `COc1cccc(/C=C(\NC(=O)c2ccccc2)C(=O)Nc2cccc(O)c2)c1OC`, `CCC1=NN(c2ccccc2)C(=O)C(CC(=O)Nc2ccccc2)c2cc(OC)c(OC)cc21` (stereo not shown) is higher in “% Inhibition @ 10 uM” value: -5.14% for the first, 3.31% for the second.

First: CC(C)c1ccccc1OCC(=O)Nc1sc2c(c1C(N)=O)CCCC2
Second: O=C(Cn1c(=O)n2ncnc2c2c3c(sc21)CCCC3)c1ccccc1
The “% Inhibition @ 10 uM” value of the first is higher: 1.57% for the first, -1.69% for the second.

First: COc1ccc2c(CNCc3cccc(Cl)c3)c(C(=O)O)n(Cc3ccccc3F)c2c1
Second: Cc1cc(OCC(=O)NCc2ccccc2)ccc1Br
The “% Inhibition @ 10 uM” value of the first is lower: 1.17% for the first, 2.44% for the second.

First: Cc1nn(-c2ccccc2)c(O)c1-c1nnc2c(=O)n(C)c(=O)n(C)c2n1
Second: CC1=NN(c2nc(-c3ccccc3)cs2)C(=O)/C1=C/c1ccc(C)s1
The “% Inhibition @ 10 uM” value of the first is higher: 2.57% for the first, -4.51% for the second.

First: Cc1ccc(C(C(=O)NC2CCCCC2)N2CCOCC2)cc1 (stereo not shown)
Second: O=C(CSCc1cccc(Br)c1)NC1CCCCC1
The “% Inhibition @ 10 uM” value of the first is lower: 2.06% for the first, 6.31% for the second.

Compared with `CCOC(=O)N1CCN(C(=O)c2ccc(N(C)S(=O)(=O)c3ccccc3)cc2)CC1`, `CC(=O)c1ccc(N2CCN(C(=O)c3ccccc3)CC2)c(F)c1` is higher in “% Inhibition @ 10 uM” value: -3.76% for the first, -0.116% for the second.

Going from `O=C(NCCO)c1nc[nH]c1C(=O)NCCO` to `Cc1nc(-c2ccc(C(=O)NC(CC(C)C)C(=O)NCC#N)cc2)cs1` (stereo not shown), the “% Inhibition @ 10 uM” value falls from 8.68% to -5.64%.

Compared with `CC(C)(C)c1ccc(OCC(=O)Nc2cccc3nsnc23)cc1`, `COc1ccc(OCCSc2nc(O)c3ccccc3n2)cc1` is lower in “% Inhibition @ 10 uM” value: -1.82% for the first, -4.39% for the second.

First: Cc1ccc(C(CC(=O)N2CCNCC2)c2ccccc2)c(O)c1C (stereo not shown)
Second: Cc1ccc2onc(CNC(=O)NC(C)c3ccccc3)c2c1 (stereo not shown)
The “% Inhibition @ 10 uM” value of the first is lower: 3.87% for the first, 8.23% for the second.

First: CC(=O)N1CCN(c2nc(-c3ccccc3)c3cc(C)ccc3n2)CC1
Second: Cc1ccc(C)c(S(=O)(=O)NCC(=O)Nc2nsc(-c3ccccc3)n2)c1
The “% Inhibition @ 10 uM” value of the first is lower: -6.69% for the first, -1.27% for the second.

First: CCOC(=O)c1cc2c(=O)n3ccccc3nc2n(CCOC)/c1=N\C(=O)CCc1ccccc1
Second: CCOCCCNC(=O)/C(C#N)=C/c1c(Oc2ccccc2C)nc2ccccn2c1=O
The “% Inhibition @ 10 uM” value of the first is lower: -0.363% for the first, 3.63% for the second.

Going from `Cc1sc(NC(=O)C(F)(F)F)nc1C12CC3CC(CC(C3)C1)C2` to `c1ccc(CCN2CCC(NC34CC5CC(CC(C5)C3)C4)CC2)cc1`, the “% Inhibition @ 10 uM” value rises from -5.49% to 2.1%.

Going from `Cc1ccc(C(=O)c2cnc3cc4c(cc3c2S(=O)(=O)c2ccccc2)OCCO4)cc1` to `O=S(=O)(/N=C(/Nc1ccccn1)c1ccccc1)c1ccc(Cl)cc1`, the “% Inhibition @ 10 uM” value rises from -8.2% to -4.13%.

Going from `CC(C)CN1C(=O)c2ccccc2C(C(=O)NC(C)CCc2ccco2)C1c1cccs1` (stereo not shown) to `COc1ccc(C2=NN(C(=O)c3cccs3)C(c3ccccc3F)C2)cc1OC` (stereo not shown), the “% Inhibition @ 10 uM” value rises from 1.14% to 6.52%.

Compared with `CCC1(C)CC(=O)c2c(ccc3oc(C(=O)Nc4ccc(Br)cn4)c(C)c23)O1` (stereo not shown), `COC(=O)C1=C(N)Oc2cc(C)oc(=O)c2C1c1cccnc1` (stereo not shown) is higher in “% Inhibition @ 10 uM” value: 1.22% for the first, 3.93% for the second.

Going from `CC1CN(CC2CC3C=CC2C3)CC(C)O1` (stereo not shown) to `CC1CC(C)CN(CCCNC(=O)C2CCN(C(=O)c3cc4sccc4n3C)CC2)C1` (stereo not shown), the “% Inhibition @ 10 uM” value falls from 3.48% to 0.137%.

First: Cc1cc(C)c2c(CC(=O)N3CCN(C)CC3)coc2c1
Second: C/C(=N\CCN1CCN(C(=O)c2ccccc2)CC1)C1=C(O)CC(C)(C)CC1=O
The “% Inhibition @ 10 uM” value of the first is higher: 1% for the first, -0.522% for the second.

Compared with `Cc1nnc(N2CCCC(C(=O)NC3CC3)C2)c2nn(-c3ccc(Cl)cc3)c(C)c12` (stereo not shown), `CN(Cc1ccccc1)C(=O)C1CCCN(c2ncnc3c2nc2n3CCCCC2)C1` (stereo not shown) is lower in “% Inhibition @ 10 uM” value: 11.8% for the first, 0.244% for the second.

Going from `CCc1cc2c(C)cc(=O)oc2cc1OCc1ccccc1` to `CCN(CCCNC(=O)Cn1cnc2onc(-c3ccc(F)cc3)c2c1=O)Cc1ccccc1`, the “% Inhibition @ 10 uM” value falls from 10.5% to -4.74%.

Going from `CCCC1=C(C(=O)OCC)C(c2ccccc2Cl)NC(=O)N1` (stereo not shown) to `C=CCOC(=O)C1=C(C)N=C2CC(C)(C)CC(O)=C2C1c1cccc(OC)c1OC` (stereo not shown), the “% Inhibition @ 10 uM” value rises from 0.345% to 16.8%.

Compared with `O=C(c1cnn2c1NC(c1ccccc1)CC2C(F)(F)F)N1CCCCC1` (stereo not shown), `CC1CCN(C(=O)c2cc3n(n2)C(C(F)(F)F)CC(c2ccccc2)N3)C(C)C1` (stereo not shown) is higher in “% Inhibition @ 10 uM” value: -1.06% for the first, 2.79% for the second.

Going from `CC(C)OCCCNC(=O)c1ccc2nc(N3CCCCC3)sc2c1` to `CC(C)NC(=O)CCCn1sc2ccccc2c1=O`, the “% Inhibition @ 10 uM” value falls from 2.65% to -3.53%.

First: O=C(NCc1ccccn1)C1CCN(c2ncnc3c2sc2cccc(F)c23)CC1
Second: O=C(Cn1cc(S(=O)(=O)Cc2ccccc2F)c2ccccc21)NCC1CCCO1 (stereo not shown)
The “% Inhibition @ 10 uM” value of the first is higher: -0.637% for the first, -5.46% for the second.

First: CCCCOc1ccc(S(=O)(=O)NCc2csc(C)n2)cc1
Second: Cc1ccc(NS(=O)(=O)c2ccc(C3CCCCC3)cc2)cc1
The “% Inhibition @ 10 uM” value of the first is lower: -4.24% for the first, -1.77% for the second.

First: Cc1ccsc1C(=O)NC(C)c1ccc2c(c1)OCO2 (stereo not shown)
Second: O=C(Nc1ccc2c(c1)OCCO2)C1CC2CCC1C2 (stereo not shown)
The “% Inhibition @ 10 uM” value of the first is higher: -2.85% for the first, -4.21% for the second.

First: Cc1ccc(Cl)cc1NC(=O)CC1NC2CCCCC2NC1=O (stereo not shown)
Second: CC(C)(CCC(=O)Nc1ccc(Cl)cc1Cl)C(=O)Nc1ccc(Cl)cc1Cl
The “% Inhibition @ 10 uM” value of the first is higher: 3.8% for the first, -0.0372% for the second.

First: O=C1NC(Nc2ccccc2C(=O)O)=N/C1=C\c1ccccc1
Second: N#Cc1cn(CC(=O)NCCc2c[nH]c3ccccc23)c2ccccc12
The “% Inhibition @ 10 uM” value of the first is higher: 2.4% for the first, 1.31% for the second.

Going from `CC1(C)CC(O)=C/C(=N/CCCN2CCOCC2)C1` to `Oc1ccc(N2CCOCC2)nn1`, the “% Inhibition @ 10 uM” value rises from -4.21% to 0.708%.

First: Cc1nc2nc(NC(=O)c3cccs3)nn2c(C)c1Cl
Second: O=C(Nc1cc(-c2cccc(Cl)c2)no1)c1cc2ccc3cccnc3c2[nH]1
The “% Inhibition @ 10 uM” value of the first is lower: -1.31% for the first, 2.94% for the second.

First: COC(=O)C1=CN(Cc2cccs2)C=C(C(=O)OC)C1c1ccc(Cl)cc1
Second: O=C(NCc1ccc(F)cc1)c1nnc(Cc2ccc(Cl)cc2)o1
The “% Inhibition @ 10 uM” value of the first is higher: -2.87% for the first, -5.29% for the second.

Compared with `CC1=C(c2ccccc2)SC2=NCCCN21`, `Cc1ccc(-n2ccc3nc4c(c(N)c3c2=O)CCC4)cc1` is lower in “% Inhibition @ 10 uM” value: 4.41% for the first, 4.04% for the second.

Compared with `CCCC1Cc2nc(Cl)c(C#N)cc2CO1` (stereo not shown), `COc1cc(C2CC3CC2C(C)C3(C)C)ccc1O` (stereo not shown) is higher in “% Inhibition @ 10 uM” value: 1.32% for the first, 2.94% for the second.

First: Fc1ccc(-c2csc(Nc3cccc4ccccc34)n2)cc1
Second: Nc1ccc2oc3ccc(N)cc3c(=O)c2c1
The “% Inhibition @ 10 uM” value of the first is lower: 1.08% for the first, 2.51% for the second.

First: CC1CCC(NC(=O)C2CCN(c3cnccn3)CC2)CC1 (stereo not shown)
Second: COc1ccc(/C=C2/C(=N)N3OC(C)=CC3=NC2=O)cc1
The “% Inhibition @ 10 uM” value of the first is lower: 4% for the first, 5.21% for the second.

With `COc1ccc(NC(=O)c2cc(Cl)ccc2OC)c(OC)c1` the “% Inhibition @ 10 uM” value was -0.884% and -6.34%.
For `O=c1c2ccccc2nc(NC2CCCCC2)n1-c1ccccc1`, the “% Inhibition @ 10 uM” value was 5.48% and -3.45%.

From PMC6919601, “Identification of Plasmodium dipeptidyl aminopeptidase allosteric inhibitors by high throughput screening” (PLoS ONE, 2019)
